Laboratory results from the supplement of paper PMC10320760.
Single values of this set are uncertain.

B1: Ydj1; a variant is named by its letters at X, in order (parent)
chain: MVKETKFYDILGVPVTATDVEIKKAYRKCALKYHPDKNPSEEAAEKFKEASAAYEILSDPEKRDIYDQFGEDGLSGAGGAGGFPGGGFGFGDDIFSQFFGAGGAQRPRGPQRGKDIKHEISASLEELYKGRTAKLALNKQILCKECEGRGGKKGAVKKCTSCNGQGIKFVTRQMGPMIQRFQTECDVCHGTGDIIDPKDRCKSCNGKKVENERKILEVHVEPGMKDGQRIVFKGEADQAPDVIPGDVVFIVSERPHKSFKRDGDDLVYEAEIDLLTAIAGGEFALEHVSGDWLKVGIVPGEVIAPGMRKVIEGKGMPIPKYGGYGNLIIKFTIKFPENHFTSEENLKKLEEILPPRIVPAIPKKATVDECVLADFDPAKYNRTRASRGGANYDSDEEEQGGEGVQCXXX

Variants of: B1
Experiment: enrichment factor, frequency at 37 °C / frequency at 25 °C (thermotolerance selection) (ratio); higher = more growth at 37 °C, higher likelihood of farnesylation
Settings: with Saccharomyces cerevisiae ydj1Δ (yWS304); selective temperature 37 °C; reference temperature 25 °C
Work on IRF yielded an enrichment factor of 0.345.
KRF gave an enrichment factor of 0.161.
LRF was tested, and the enrichment factor was 0.2.
Variant MRF has an enrichment factor of 0.247.
NRF showed an enrichment factor of 0.184.
PRF gave an enrichment factor of 0.228.
Work on QRF yielded an enrichment factor of 0.158.
With RRF the enrichment factor was 0.129.
For SRF, the enrichment factor was 0.21.
TRF was tested, and the enrichment factor was 0.0924.
CRF was tested, and the enrichment factor was 0.359.
With VRF the enrichment factor was 0.583.
WRF gave an enrichment factor of 1.36.
Variant YRF has an enrichment factor of 0.565.
DRG showed an enrichment factor of 0.116.
ERG gave an enrichment factor of 0.205.
With FRG the enrichment factor was 1.2.
For GRG, the enrichment factor was 0.164.
HRG gave an enrichment factor of 0.239.
Work on ARG yielded an enrichment factor of 0.167.
Variant IRG has an enrichment factor of 0.133.
KRG showed an enrichment factor of 0.187.
In the case of LRG, the enrichment factor is reported as 0.187.
Work on MRG yielded an enrichment factor of 0.103.
Variant NRG has an enrichment factor of 0.126.
With PRG the enrichment factor was 0.23.
QRG gave an enrichment factor of 0.156.
With RRG the enrichment factor was 0.216.
SRG was tested, and the enrichment factor was 0.333.
For TRG, the enrichment factor was 0.116.
For CRG, the enrichment factor was 0.189.
VRG was tested, and the enrichment factor was 0.129.
For WRG, the enrichment factor was 1.54.
With YRG the enrichment factor was 0.367.
In the case of DRH, the enrichment factor is reported as 0.15.
In the case of ERH, the enrichment factor is reported as 0.117.
With FRH the enrichment factor was 0.442.
Variant GRH has an enrichment factor of 0.178.
With HRH the enrichment factor was 0.0971.
ARH gave an enrichment factor of 0.115.
IRH was tested, and the enrichment factor was 0.172.
KRH showed an enrichment factor of 0.22.
Variant LRH has an enrichment factor of 0.214.
For MRH, the enrichment factor was 0.185.
Work on NRH yielded an enrichment factor of 0.181.
PRH showed an enrichment factor of 0.116.
In the case of QRH, the enrichment factor is reported as 0.203.
Variant RRH has an enrichment factor of 0.185.
In the case of SRH, the enrichment factor is reported as 0.123.
Variant TRH has an enrichment factor of 0.133.
In the case of CRH, the enrichment factor is reported as 0.158.
VRH gave an enrichment factor of 0.174.
For WRH, the enrichment factor was 1.06.
With YRH the enrichment factor was 0.142.
With DRI the enrichment factor was 0.135.
For ERI, the enrichment factor was 0.214.
With FRI the enrichment factor was 1.09.
For GRI, the enrichment factor was 0.1.
Variant HRI has an enrichment factor of 0.291.
Variant ARI has an enrichment factor of 0.142.
Work on IRI yielded an enrichment factor of 0.236.
KRI gave an enrichment factor of 0.132.
LRI showed an enrichment factor of 0.169.
MRI gave an enrichment factor of 0.159.
With NRI the enrichment factor was 0.152.
For PRI, the enrichment factor was 0.175.
QRI was tested, and the enrichment factor was 0.164.
Variant RRI has an enrichment factor of 0.11.
Work on SRI yielded an enrichment factor of 0.148.
Variant TRI has an enrichment factor of 0.153.
With CRI the enrichment factor was 0.169.
VRI was tested, and the enrichment factor was 0.14.
Work on WRI yielded an enrichment factor of 1.25.
Work on YRI yielded an enrichment factor of 0.32.
For DRK, the enrichment factor was 0.145.
With ERK the enrichment factor was 0.276.
For FRK, the enrichment factor was 0.2.
For GRK, the enrichment factor was 0.0374.
HRK gave an enrichment factor of 0.0906.
In the case of ARK, the enrichment factor is reported as 0.138.
Work on IRK yielded an enrichment factor of 0.188.
KRK showed an enrichment factor of 0.211.
For LRK, the enrichment factor was 0.0854.
Work on MRK yielded an enrichment factor of 0.195.
With NRK the enrichment factor was 0.247.
PRK showed an enrichment factor of 0.145.
QRK showed an enrichment factor of 0.178.
RRK showed an enrichment factor of 0.114.
SRK gave an enrichment factor of 0.107.
TRK gave an enrichment factor of 0.102.
CRK showed an enrichment factor of 0.15.
In the case of VRK, the enrichment factor is reported as 0.094.
With WRK the enrichment factor was 0.129.
YRK showed an enrichment factor of 0.144.
DRL gave an enrichment factor of 0.219.
ERL gave an enrichment factor of 0.139.
FRL was tested, and the enrichment factor was 0.832.
Variant GRL has an enrichment factor of 0.111.
HRL showed an enrichment factor of 0.18.
ARL showed an enrichment factor of 0.29.
For IRL, the enrichment factor was 0.187.
For KRL, the enrichment factor was 0.147.
Work on LRL yielded an enrichment factor of 0.253.
MRL showed an enrichment factor of 0.249.
NRL was tested, and the enrichment factor was 0.224.
PRL was tested, and the enrichment factor was 0.0961.
QRL showed an enrichment factor of 0.121.
For RRL, the enrichment factor was 0.229.
In the case of SRL, the enrichment factor is reported as 0.175.
In the case of TRL, the enrichment factor is reported as 0.164.
With CRL the enrichment factor was 0.266.
VRL gave an enrichment factor of 0.199.
WRL showed an enrichment factor of 1.55.
In the case of YRL, the enrichment factor is reported as 0.373.
Variant DRM has an enrichment factor of 0.247.
ERM gave an enrichment factor of 0.494.
FRM gave an enrichment factor of 1.54.
GRM showed an enrichment factor of 0.389.
HRM was tested, and the enrichment factor was 0.987.
For ARM, the enrichment factor was 0.904.
For IRM, the enrichment factor was 0.194.
Variant KRM has an enrichment factor of 0.141.
For LRM, the enrichment factor was 0.242.
With MRM the enrichment factor was 0.948.
NRM gave an enrichment factor of 0.135.
For PRM, the enrichment factor was 0.116.
Work on QRM yielded an enrichment factor of 0.333.
With RRM the enrichment factor was 0.108.
Work on SRM yielded an enrichment factor of 0.281.
With TRM the enrichment factor was 0.105.
With CRM the enrichment factor was 0.326.
VRM showed an enrichment factor of 0.175.
WRM gave an enrichment factor of 1.24.
For YRM, the enrichment factor was 1.18.
DRN was tested, and the enrichment factor was 0.156.
Variant ERN has an enrichment factor of 0.0877.
With FRN the enrichment factor was 1.32.
GRN showed an enrichment factor of 0.162.
Work on HRN yielded an enrichment factor of 0.275.
Variant ARN has an enrichment factor of 0.239.
IRN showed an enrichment factor of 0.152.
KRN gave an enrichment factor of 0.0847.
For LRN, the enrichment factor was 0.142.
MRN gave an enrichment factor of 0.0838.
In the case of NRN, the enrichment factor is reported as 0.17.
Work on PRN yielded an enrichment factor of 0.17.
For QRN, the enrichment factor was 0.111.
Variant RRN has an enrichment factor of 0.146.
In the case of SRN, the enrichment factor is reported as 0.179.
TRN gave an enrichment factor of 0.186.
CRN showed an enrichment factor of 0.167.
VRN gave an enrichment factor of 0.149.
With WRN the enrichment factor was 1.32.
YRN was tested, and the enrichment factor was 0.57.
In the case of DRP, the enrichment factor is reported as 0.206.
ERP gave an enrichment factor of 0.0885.
In the case of FRP, the enrichment factor is reported as 1.29.
Variant GRP has an enrichment factor of 0.0975.
HRP gave an enrichment factor of 0.206.
In the case of ARP, the enrichment factor is reported as 0.126.
IRP gave an enrichment factor of 0.124.
KRP gave an enrichment factor of 0.142.
LRP gave an enrichment factor of 0.18.
In the case of MRP, the enrichment factor is reported as 0.12.
NRP showed an enrichment factor of 0.0742.
PRP gave an enrichment factor of 0.138.
For QRP, the enrichment factor was 0.134.
